The record followed here is US20080075796A1, “Compositions and Methods for Controlling Insects” (TyraTech, Inc., priority 2003, published 2008).

In general, EC50 refers to the midpoint of the concentration-response curve. A high value points to lower potency in that assay. By Ki is commonly meant the equilibrium dissociation constant of an inhibitor or competing ligand from its target. The low end stands for higher affinity, the high end for lower affinity.

The assay deals with T1, tyramine receptor (TyrR) (Drosophila melanogaster, UniProt P22270).
T1 sequence (P22270 27-601): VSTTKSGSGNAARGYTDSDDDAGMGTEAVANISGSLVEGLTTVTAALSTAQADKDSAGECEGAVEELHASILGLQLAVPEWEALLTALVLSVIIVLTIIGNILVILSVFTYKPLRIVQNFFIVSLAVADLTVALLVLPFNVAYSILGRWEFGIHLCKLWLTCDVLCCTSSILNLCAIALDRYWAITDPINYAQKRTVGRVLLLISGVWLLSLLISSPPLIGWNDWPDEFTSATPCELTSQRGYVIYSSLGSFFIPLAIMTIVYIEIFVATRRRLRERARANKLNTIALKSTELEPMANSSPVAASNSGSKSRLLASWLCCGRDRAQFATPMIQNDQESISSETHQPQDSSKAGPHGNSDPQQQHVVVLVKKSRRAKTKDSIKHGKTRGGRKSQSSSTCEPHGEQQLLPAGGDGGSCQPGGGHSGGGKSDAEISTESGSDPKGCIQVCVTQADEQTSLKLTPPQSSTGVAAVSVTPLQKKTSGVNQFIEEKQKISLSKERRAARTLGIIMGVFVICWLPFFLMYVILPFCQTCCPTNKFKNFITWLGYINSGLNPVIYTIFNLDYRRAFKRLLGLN
Particulars: displacement of about 2 nM ^3H-tyramine.

As for `NCC(O)c1ccc(O)cc1` (centres unmarked) [Octopamine (OA), Octopamine], the concentration giving a half-maximal response (EC50) (EC50 (concentration at which binding is inhibited by 50%)) came to 7.46 µM. Further, the affinity (Ki), expressed as Ki, was 2.87 µM.
